Binding signal data for 22 molecules are collected here from publication PMC12136788.

The chains are these.
T1: UNK ZnF1-3 (human, UniProt Q9C0B0 31-174)
T1 sequence: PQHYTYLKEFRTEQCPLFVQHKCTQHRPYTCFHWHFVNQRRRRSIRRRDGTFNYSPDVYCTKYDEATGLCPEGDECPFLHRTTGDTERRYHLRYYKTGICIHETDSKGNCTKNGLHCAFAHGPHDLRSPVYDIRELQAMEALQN

B1: chr8:9988343:9988344:+_ENSMUSG00000040396_ENSMUST00000048216|mus_mus|FALSE|FALSE (ssRNA)
RNA: GGGAGUUCUACAGUCCGACGAUCUGUUUUUGUCAUGUCUUCGGGAGAAUGACUCUUGAUCACUUCCUUGAUAAAUUGUUCUAGUGCAGUGAAGUAGCCUUGGCACUGCCAUGUGUCGUUGUGCGUCCCAUCUGGGAAAAUGGCCAACAGAGGAUUGAGCAUCA
B2: chr11:118639009:118639010:-_ENSG00000110367_ENST00000264018|hu_hu|motif|central (ssRNA)
RNA: GGGAGUUCUACAGUCCGACGAUCUUCAAGUAAGGGAAUGAGGUAGGCACCGCUCUUGCCUGUUCCAUUUUUUGCUCGGGCGGAGAUAUCCCUACCAGAUAAAGCAAUGGGAAUGCUCUCCUCCUGAAUAGGAGAUGGCUUUUCCAACAGAGGAUUGAGCAUCA
B3: chr1:160305110:160305111:-_ENSG00000122218_ENST00000241704|hu_mus|FALSE|FALSE (ssRNA)
RNA: GGGAGUUCUACAGUCCGACGAUCUGAGGCGCUCAGAAUCCAAGGAUAUUCAUGAUGGAAAAACGUUGUACGGAUAUAAUCCAAGUGCCCGAGCAAUGUGAACAGGCAGCGCCGAAGUUUGUAAUUCCAAACCUUAAUCUUAUACAACAGAGGAUUGAGCAUCA
B4: chr1:109605286:109605287:-_ENSG00000197780_ENST00000461096|hu_mus|hu_hu_hu_mus_True|1_28 (ssRNA)
RNA: GGGAGUUCUACAGUCCGACGAUCAAGUUUCAGAGUAACAUUCAGUAACCUCUUUAAAUGCAAUUAUCCUUAUUAUAAGCUAAGCAGAAUAAUAAUUUAAUACCGUAAGUAAAUACAACACAAAGCCUGAACCGCGAAACUACACAACAGAGGAUUGAGCAUCA
B5: 90513150_90513270_281_CDS_ENSG00000112159_ENST00000369393|human|control|control (ssRNA)
RNA: GGGAGUUCUACAGUCCGACGAUCCCUUUCCAGCAAAUCCAAAAGGAGAGGGCGAAGCUGGCGACCAACCAGCACAGUACAGUCCUUAUCCAAAAGCAACUGUGCUAAGGUACUCAGGACACACUGGCGAUCUUGAGGUGUCCACAACAGAGGAUUGAGCAUCA
B6: chr2:34708205:34708206:-_ENSMUSG00000026869_ENSMUST00000028225|mus_mus|FALSE|FALSE (ssRNA)
RNA: GGGAGUUCUACAGUCCGACGAUCUUCACUUAGGUACGCUCUGAGCCUCAAAUAAUUUGAGUUCCCAAAGAUCUCUGCAACUGUCUUGGAAUUGGCAAGUGCUUUUACCAGUUCAUAUUUGGCAUCCUUUGAAGCUUUGUCAUGCAACAGAGGAUUGAGCAUCA
B7: chr13:43497316:43497317:+_ENSMUSG00000063200_ENSMUST00000071926|mus_mus|FALSE|FALSE (ssRNA)
RNA: GGGAGUUCUACAGUCCGACGAUCCAAACAAAAUAUGUUUAUGAUUUUUAUAAUGAUCCGUUACAAUGAUUUAUCAGUGACUAAAUUUUGAGAAAUGAACCCUCUCUGCACCCAGUAAUCUUAAACUAUGCAUGCAAAAUGCAGCAACAGAGGAUUGAGCAUCA
B8: chrX:71549400:71549401:+_ENSMUSG00000019087_ENSMUST00000019231|mus_hu|mus_mus_mus_hu_False|68_108 (ssRNA)
RNA: GGGAGUUCUACAGUCCGACGAUCGCAAGGAAGAGGAGGAAGCUCUUCAGUCCAGUGCGCUGCAGGGAGAAACAUGAACAACACGGACACCGUCCCACCCUCAACCCCCCCACUGGCACAGGGUCACACAAUCUGGGUCAAAGACAACAGAGGAUUGAGCAUCA
B9: chr19:2271408:2271409:+_ENSG00000104904_ENST00000602676|hu_mus|FALSE|FALSE (ssRNA)
RNA: GGGAGUUCUACAGUCCGACGAUCUGGGAUCUUCAGGGGUGGGUGAGGGACAUCGCACCACCGAGGCCCCGGACCCAGGUUACUACAGCAAUUAAGGGCAACCCUAGAACUCUCGCUGCUGCAGCCGCCGCGGCUGUGCUGACUCAACAGAGGAUUGAGCAUCA
B10: chr19:60949100:60949101:-_ENSMUSG00000024997_ENSMUST00000025961|mus_hu|FALSE|FALSE (ssRNA)
RNA: GGGAGUUCUACAGUCCGACGAUCACUGGAACCAGAACACAAUAAAUUUGUCAAGCUCGUUCUUCCACAUGCAGCAGGCCUGAGGGCUGCAGUGGCAGAAAUGCCCCAAGGAAUGGCACUCACAUGUCGGGCAACCGACGCUCGCAACAGAGGAUUGAGCAUCA
B11: 216299512_216300462_389_CDS_ENSG00000115414_ENST00000323926|human|control|control (ssRNA)
RNA: GGGAGUUCUACAGUCCGACGAUCUAUCUGAUAGUGUUUUCCAUUGUCAUAACAACCGGGCUUGCUUUGACUGACAGCCACCGGGGACUGGGGCUGAACCAUUUGCUGAGCCUGCCUCUUGCUCUUCGAGGCUCCCGUGGAGGGCAACAGAGGAUUGAGCAUCA
B12: chr7:90019461:90019462:+_ENSMUSG00000057706_ENSMUST00000082237|mus_mus|motif|central (ssRNA)
RNA: GGGAGUUCUACAGUCCGACGAUCCGUCACAAUCGUGUGAUUAUUAAAAUAAUACAGUGUUCUUUGCCAUAAGGCCAUACGGAAAAUAAAAAGAUUUAACCCAGCUACAAAAAAGUUCACUGAACUUAAAUUAAAAUACUUGUACAACAGAGGAUUGAGCAUCA
B13: 7871621_7871741_414_CDS_ENSMUSG00000024283_ENSMUST00000074919|mouse|control|control (ssRNA)
RNA: GGGAGUUCUACAGUCCGACGAUCACCGUCCCUUUCUCUAACUCUCUGAGUGUGCACGUUUUUGGCCUUGUUGUGACCUGUGCUGUCACUGUAUUUGUUUUCAGGACUAUUAGAUCUCCGCAACAUUUUGUUUGGUGGUGAAGGCAACAGAGGAUUGAGCAUCA
B14: chr7:141438946:141438947:+_ENSG00000106028_ENST00000265304|hu_mus|hu_hu_hu_mus_True|98_108 (ssRNA)
RNA: GGGAGUUCUACAGUCCGACGAUCGACUACCUGUAAUACAGGUCUUCCUUCGAAACAUGGCUUCUGUUUUUCUUACAACCUAAUCUUUAGGCUUUUCCUAAAGGAAAGAAAGAAAAGAGAAAAAUGAUAAAUCAAGAAACUACACAACAGAGGAUUGAGCAUCA
B15: chr4:62048941:62048942:+_ENSMUSG00000066150_ENSMUST00000084526|mus_hu|motif|central (ssRNA)
RNA: GGGAGUUCUACAGUCCGACGAUCUUGUGACUUACGCAGCAGGCUCUCUCGGGCUAUCUUGAGUCCUUCAUAGAACAUUGCGGGUAAAAACACUGCCACAAAAGCUCCAGCCAUUUCUCCAGCUGUAUUGAUCACCAAACCGGACAACAGAGGAUUGAGCAUCA
B16: chr1:163112212:163112213:-_ENSG00000143248_ENST00000313961|hu_hu|hu_hu_hu_mus_False|78_78 (ssRNA)
RNA: GGGAGUUCUACAGUCCGACGAUCUUUUAUUAUCAGUAAGAGUGAGUUACAUACUAGAUAAAGUAUUGGAUACAAUAAUCAGGAAACAAACACUAUUGGUCCAGAAUUUAAAACUUUAUGAGCGAAGUGCUGGCACAGGACUUACAACAGAGGAUUGAGCAUCA
B17: chr15:66840984:66840985:+_ENSG00000174442_ENST00000446801|hu_hu|motif|central (ssRNA)
RNA: GGGAGUUCUACAGUCCGACGAUCCUAUUUUUUAAGUUUUCCCAAUACAGUUAAAGCUUUUGGGAUAAAGCUGUAUUUACGGAAAUGAUCCUGUUCUCAUUUGUGGUGCUCGUUCUCUUUGUCAUUUCAGAGCCCUUGCUAAGUCAACAGAGGAUUGAGCAUCA
B18: chr8:101271117:101271118:-_ENSG00000034677_ENST00000519449|hu_mus|motif|central (ssRNA)
RNA: GGGAGUUCUACAGUCCGACGAUCGCAAUCACUGGAGCCGUGACUACAGGACGUUCUCAUGCUUUCUAAGUCUGAGCAGCGGAAUUCAGAAAAAUGACUGGAGUGGGAAUCUGCUACAGACGGCAUGCUGUCACUGAGGGAUGGCAACAGAGGAUUGAGCAUCA
B19: chr7:7679991:7679992:-_ENSG00000106399_ENST00000396682|hu_hu|hu_hu_hu_mus_False|8_98 (ssRNA)
RNA: GGGAGUUCUACAGUCCGACGAUCUGGGAUGAAUCUUUUCCAGCCUCCCCACGAAGCACACGGGCCGGUCGAUAUACUGUGGUAACAUGCUGGCGUUGACGCGCGCUUUGGGGAGCUGCAUUAUGUCCACCAUGAUUCUGCCGCCAACAGAGGAUUGAGCAUCA
B20: chr5:128440902:128440903:+_ENSG00000066583_ENST00000173527|hu_mus|hu_hu_hu_mus_True|78_78 (ssRNA)
RNA: GGGAGUUCUACAGUCCGACGAUCUUGAACGGUGCUGCCAAGUCCUUUGGGGUAUUGUUCUGUUACAAUAACUGGAAUCCCUAAGAUCCGAGCUCCUUGCAACAGUCUCUGUCCCACACUAAUGAUGUCCCCAAAGUAUUUGAUCAACAGAGGAUUGAGCAUCA
B21: chr3:185643329:185643330:-_ENSG00000136527_ENST00000456380|hu_hu|motif|central (ssRNA)
RNA: GGGAGUUCUACAGUCCGACGAUCGACAUGGGAGAAUGGCUGUGGCUGUGCCGUCUACGAUAAUCUCGACUGUAAGACCUGCGGCGUGAUCGUCUAUGGGAGCGGGAGCGAGACCGUGACCGGGUAUAAUGCCUUCGGGAGCUUCAACAGAGGAUUGAGCAUCA
B22: chr7:141438946:141438947:+_ENSG00000106028_ENST00000265304|hu_mus|hu_hu_hu_mus_True|8_88 (ssRNA)
RNA: GGGAGUUCUACAGUCCGACGAUCGACGAAAUACCUGUAACACAGGUGAAACAUGGCUGGCUUCUGUUUUUCUUACAACCUAAUCUUUAGGCUUUUCCUAAAGGAAAGAAAGAAAAGAGAAAAAUGAGCAGGGGAUCAACUACACAACAGAGGAUUGAGCAUCA

The list shows a part of the results.

This assay addresses T1, UNK ZnF1-3. Nature of the assay: nsRBNS (natural sequence RNA bind-n-seq); RBNS binding buffer (assumed for nsRBNS): 25 mM Tris pH 7.5, 150 mM KCl, 3 mM MgCl2, 0.01% Triton X-100, 500 ug/ml BSA, 20 U/ml SUPERase-In, 4 C; UNK is unkempt and MSI1 is Musashi-1; names of the RNAs are library labels; protein concentration not given here; high values mean tight binding.
B1 yielded a binding signal of 0.822 enrichment R.
In the case of B2 it was 0.679 enrichment R; in that of B3, 1.19 enrichment R.
B4: the binding signal stood at 0.734 enrichment R.
In the case of B5 it was 0.874 enrichment R; in that of B6, 0.662 enrichment R; in that of B7, 1.23 enrichment R.
In the case of B8 it was 1.88 enrichment R; in that of B9, 0.961 enrichment R; in that of B10, 0.988 enrichment R.
In the case of B11, the binding signal was 0.669 enrichment R.
In the case of B12 it was 1.93 enrichment R; in that of B13, 0.437 enrichment R.
The figure for B14 is 0.413 enrichment R; for B15 it is 0.6 enrichment R; for B16 it is 1.19 enrichment R.
With B17, the binding signal is 0.478 enrichment R.
B18 had a binding signal of 1.45 enrichment R.
The figure for B19 is 0.517 enrichment R; for B20 it is 0.449 enrichment R; for B21 it is 1.5 enrichment R.
On to B22, for which the binding signal came to 0.856 enrichment R.
